# Source: the supplement of paper PMC12217912
# This is one part of the list. Sequences were assembled here from the parent chain. Inactive controls read about 0.05.
# B1: TEV protease; numbered along this chain (parent)
# chain: MGESLFKGPRDYNPISSSICHLTNESDGHTTSLYGIGFGPFIITNKHLFRRNNGTLVVQSLHGVFKVKDTTTLQQHLVDGRDMIIIRMPKDFPPFPQKLKFREPQREERICLVTTNFQTKSMSSMVSDTSCTFPSGDGIFWKHWIQTKDGQCGSPLVSTRDGFIVGIHSASNFTNTNNYFTSVPKNFMELLTNQEAQQWVSGWRLNADSVLWGGHKVFMVKPEEPFQPVKEATQL
# Variants of: B1
# Assay: raw area under fraction-flipped curve 0-4 h after induction (AUC4h, not background-subtracted), DNA-recorder readout of cleavage of the substrate (dimensionless); higher = more cleavage of the substrate by the protease variant
# Settings: temperature: 34 °C; time window: 0-4 h after rhamnose induction
# Protocol: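 In vivo DNA recorder in E. coli TOP10(DE3) ΔrhaA at 34 °C. Each TEVp single-site mutant (parent TEVp 0) is paired with a single-site variant of the 7-mer TEVs (canonical ENLYFQ|S). The substrate sits between flexible linkers in a Bxb1-sfGFP-TEVs-SsrA fusion, so cleavage stabilises Bxb1 and speeds flipping of a recombination array, read by NGS. The value is the raw area under the fraction-flipped curve over 0-4 h after rhamnose induction (AUC4h), with ≥20 reads per time point. It is not background-subtracted; inactive controls average about 0.047.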
# 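Further: Bxb1 expression induced with 0.2% (w/v) L-rhamnose at OD600 near 0.5, cultures sampled hourly, flipped fraction per protease–substrate barcode pair counted by paired-end Illumina sequencing.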
Variant,area with substrate ENLAFQS,area with substrate ENLCFQS,area with substrate ENLDFQS,area with substrate ENLEFQS,area with substrate ENLFFQS,area with substrate ENLHFQS,area with substrate ENLLFQS,area with substrate ENLQFQS,area with substrate ENLSFQS,area with substrate ENLVFQS,area with substrate ENLWFQS,area with substrate ENLGFQS,area with substrate ENLKFQS,area with substrate ENLMFQS,area with substrate ENLNFQS,area with substrate ENLPFQS,area with substrate ENLRFQS,area with substrate ENLIFQS,area with substrate ENLTFQS
H47A,0.0612,0.0641,0.0574,0.0628,0.0587,0.0566,0.0685,0.0374,0.0618,0.0617,0.0543,–,–,–,–,–,–,–,–
L33Q,0.0634,–,0.0622,–,0.0762,0.0657,0.0572,0.0602,–,–,–,0.0666,0.0567,0.0658,0.0691,0.0627,0.0565,–,–
K216L,0.0476,0.0519,0.0666,–,–,0.0621,0.0659,0.059,–,–,–,0.04,0.0701,0.0836,0.0826,–,–,–,–
S121A,0.0602,–,0.069,–,0.0741,–,–,0.0663,0.0733,–,0.0706,–,0.0808,0.0778,0.0669,0.0584,0.0609,–,–
Q118G,0.059,0.0662,0.0708,0.137,0.0759,0.0344,–,0.0727,0.0647,–,–,–,0.0791,–,0.0388,0.0649,0.0614,0.0927,–
S18V,0.0696,–,0.0618,0.0758,0.0819,0.0789,0.07,0.0829,0.0608,0.105,–,–,0.0764,–,0.0657,0.0668,0.0876,–,–
F92T,0.0635,0.0926,0.0455,–,–,0.057,–,0.0626,0.0761,0.0784,0.074,0.053,–,–,0.059,0.0554,0.0595,0.0826,–
P225R,0.0457,0.0627,0.0642,0.0934,0.114,0.0719,0.0613,0.0755,0.0607,–,0.0808,0.0623,0.0655,0.0724,0.0658,0.0652,0.0679,0.0787,0.105
Q227P,0.0782,–,0.0516,–,0.1,0.0742,0.0522,–,0.071,–,0.0832,0.0519,0.0768,0.0667,0.0599,0.0497,–,–,–
N178I,0.0574,–,0.0684,–,–,–,–,–,–,–,0.0493,–,–,–,–,–,–,–,0.0742
V229L,0.0632,–,0.0475,0.059,0.0817,0.0779,0.0483,0.068,0.0722,0.0901,0.0492,–,0.0764,–,0.0585,0.0538,0.0242,0.0694,–
V67R,0.0523,0.0576,0.0436,0.0504,0.055,–,0.0468,–,0.0529,–,0.0621,–,0.059,–,–,–,–,0.0574,–
G202S,0.0712,–,0.0589,–,0.0694,0.0794,0.0711,–,0.0659,–,0.0717,–,0.0632,–,0.0722,0.0485,0.0525,0.0512,–
L33F,0.074,0.0545,0.0613,0.0588,0.0656,0.0956,–,0.0595,0.0594,0.0637,0.0486,–,0.0644,–,0.0565,0.0567,0.055,0.0707,0.0454
